The supplement of paper PMC4967469
IC50 is the fitted dose that halves viability relative to control wells, and lower means more sensitive; where the fit passes the top or lowest dose, that dose stands as a limit. For AUC the same curve is integrated over the 256-fold range of doses and scaled to a fraction; the more sensitive the line, the further below 1. For part of these data: Where the top dose is marked as inferred, it comes from the curve model; the source does not state it. For part of these data: Where an entry number is given, a second screen of the drug exists; the two often differ.

Columns and labels:
Test in all cases: Viability of human cancer cell lines after 72 h of drug (GDSC screen)
PD-0332991 = compound: CC(=O)c1c(C)c2cnc(Nc3ccc(N4CCNCC4)cn3)nc2n(C2CCCC2)c1=O [PD-0332991]
Procedure: (§1)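 Human cancer cell lines in 384-well plates, medium with 10% serum, drug for 72 h over a 256-fold dose range (nine 2-fold or five 4-fold steps up to the top dose). Adherent lines were fixed and stained with the nucleic acid dye Syto60, suspension lines read with resazurin; signal relative to control wells, capped at 0 and 100%. One two-parameter sigmoid per drug and line, fitted in a mixed model over all curves with the slope shared within a line.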

ZM-447439 = compound: COc1cc2c(Nc3ccc(NC(=O)c4ccccc4)cc3)ncnc2cc1OCCCN1CCOCC1 [ZM-447439]; conditions: top dose inferred
Procedure: as §1

AZD6244 = compound: Cn1cnc2c(F)c(Nc3ccc(Br)cc3Cl)c(C(=O)NOCCO)cc21 [AZD6244]; conditions: screen: GDSC drug entry 1062
Procedure: as §1

Cell Line | AUC (PD-0332991) | IC50 (PD-0332991) [µM] | AUC (ZM-447439) | IC50 (ZM-447439) [µM] | AUC (AZD6244) | IC50 (AZD6244) [µM]
HuH-7 (liver, adherent, top dose 4 µM) | 0.865 | 3.53 | 0.956 | > 4 | 0.941 | > 4
HuO9 (osteosarcoma, adherent, top dose 4 µM) | 0.939 | > 4 | 0.949 | > 4 | 0.912 | > 4
HuO-3N1 (osteosarcoma, adherent, top dose 4 µM) | 0.983 | > 4 | 0.961 | > 4 | 0.978 | > 4
HuP-T3 (pancreas, adherent, top dose 4 µM) | 0.796 | 2.37 | 0.915 | > 4 | 0.963 | > 4
HuP-T4 (pancreas, adherent, top dose 4 µM) | 0.81 | 2.26 | 0.845 | 3.16 | 0.962 | > 4
IGR-1 (melanoma, adherent, top dose 4 µM) | 0.914 | > 4 | 0.978 | > 4 | 0.897 | 3.89
IGROV-1 (ovary, adherent, top dose 4 µM) | 0.792 | 2.86 | 0.918 | > 4 | 0.873 | > 4
IHH-4 (thyroid, semi-adherent, top dose 4 µM) | 0.736 | 0.997 | 0.778 | 1.3 | 0.569 | 0.371
IM-9 (myeloma, suspension, top dose 4 µM) | 0.992 | > 4 | 0.974 | > 4 | 0.991 | > 4
IMR-5 (neuroblastoma, adherent, top dose 4 µM) | 0.992 | > 4 | 0.912 | > 4 | 0.976 | > 4
IPC-298 (melanoma, adherent, top dose 4 µM) | 0.894 | > 4 | 0.98 | > 4 | 0.371 | 0.111
IST-MEL1 (melanoma, adherent, top dose 4 µM) | 0.817 | 2.81 | 0.921 | > 4 | 0.868 | > 4
IST-SL1 (small cell lung carcinoma, semi-adherent, top dose 4 µM) | 0.986 | > 4 | 0.775 | 1.63 | 0.981 | > 4
IST-SL2 (small cell lung carcinoma, suspension, top dose 4 µM) | 0.988 | > 4 | 0.942 | > 4 | 0.978 | > 4
JAR (urogenital system, adherent, top dose 4 µM) | 0.987 | > 4 | 0.902 | > 4 | 0.97 | > 4
JEG-3 (urogenital system, adherent, top dose 4 µM) | 0.972 | > 4 | 0.914 | > 4 | 0.979 | > 4
JEKO-1 (B-cell lymphoma, suspension, top dose 4 µM) | 0.738 | 1.15 | 0.741 | 1.18 | 0.941 | > 4
JHH-1 (liver, adherent, top dose 4 µM) | 0.985 | > 4 | 0.935 | > 4 | 0.532 | 0.308
JHH-2 (liver, adherent, top dose 4 µM) | 0.939 | > 4 | 0.983 | > 4 | 0.874 | > 4
JHH-4 (liver, adherent, top dose 4 µM) | 0.844 | 2.84 | 0.944 | > 4 | 0.987 | > 4
JHH-7 (liver, adherent, top dose 4 µM) | 0.943 | > 4 | 0.939 | > 4 | 0.868 | 3.28

Cell Line | AUC (PD-0332991) | IC50 (PD-0332991) [µM] | AUC (ZM-447439) | IC50 (ZM-447439) [µM] | AUC (AZD6244) | IC50 (AZD6244) [µM]
JHOS-4 (ovary, adherent, top dose 4 µM) | 0.98 | > 4 | 0.98 | > 4 | 0.98 | > 4
JHU-022 (head and neck, adherent, top dose 4 µM) | 0.738 | 1.46 | 0.881 | > 4 | 0.915 | > 4
JHU-029 (head and neck, adherent, top dose 4 µM) | 0.846 | 3.99 | 0.908 | > 4 | 0.973 | > 4
JJN-3 (haematopoietic neoplasm, suspension, top dose 4 µM) | 0.993 | > 4 | 0.89 | 3.15 | 0.986 | > 4
JM1 (B-cell lymphoma, suspension, top dose 4 µM) | 0.801 | 1.64 | 0.887 | 3.37 | 0.989 | > 4
JSC-1 (B-cell lymphoma, suspension, top dose 4 µM) | 0.91 | > 4 | 0.875 | 3.88 | 0.984 | > 4
JURL-MK1 (chronic myeloid leukaemia, suspension, top dose 4 µM) | 0.504 | 0.256 | 0.882 | > 4 | 0.924 | > 4
JVM-2 (lymphoid neoplasm, suspension, top dose 4 µM) | 0.856 | > 4 | 0.885 | > 4 | 0.965 | > 4
JVM-3 (lymphoid neoplasm, suspension, top dose 4 µM) | 0.863 | 3.57 | 0.874 | > 4 | 0.962 | > 4
JiyoyeP-2003 (Burkitt lymphoma, suspension, top dose 4 µM) | 0.968 | > 4 | 0.99 | > 4 | 0.986 | > 4
K2 (melanoma, adherent, top dose 4 µM) | 0.928 | > 4 | 0.978 | > 4 | 0.974 | > 4
KARPAS-45 (lymphoblastic leukaemia, suspension, top dose 4 µM) | 0.583 | 0.406 | 0.632 | 0.541 | 0.95 | > 4
KARPAS-231 (B-cell leukaemia, suspension, top dose 4 µM) | 0.905 | 3.16 | 0.771 | 1.2 | 0.992 | > 4
KARPAS-299 (anaplastic large cell lymphoma, suspension, top dose 4 µM) | 0.877 | 2.89 | 0.966 | > 4 | 0.975 | > 4
KARPAS-422 (B-cell lymphoma, suspension, top dose 4 µM) | 0.931 | > 4 | 0.953 | > 4 | 0.98 | > 4
KARPAS-620 (haematopoietic neoplasm, suspension, top dose 4 µM) | 0.967 | > 4 | 0.95 | > 4 | 0.986 | > 4
KARPAS-1106P (B-cell lymphoma, suspension, top dose 4 µM) | 0.92 | > 4 | 0.971 | > 4 | 0.985 | > 4
KATOIII (stomach, semi-adherent, top dose 4 µM) | 0.835 | 2.33 | 0.928 | > 4 | 0.99 | > 4
KCL-22 (chronic myeloid leukaemia, suspension, top dose 4 µM) | 0.921 | > 4 | 0.989 | > 4 | 0.991 | > 4
KE-37 (lymphoblastic leukaemia, suspension, top dose 4 µM) | 0.518 | 0.276 | 0.726 | 0.909 | 0.981 | > 4
KELLY (neuroblastoma, adherent, top dose 4 µM) | 0.368 | 0.112 | 0.852 | 2.66 | 0.952 | > 4

Cell Line | AUC (PD-0332991) | IC50 (PD-0332991) [µM] | AUC (ZM-447439) | IC50 (ZM-447439) [µM] | AUC (AZD6244) | IC50 (AZD6244) [µM]
KG-1 (acute myeloid leukaemia, suspension, top dose 4 µM) | 0.933 | > 4 | 0.952 | > 4 | 0.988 | > 4
KGN (ovary, adherent, top dose 4 µM) | 0.785 | 2.12 | 0.871 | > 4 | 0.888 | > 4
KINGS-1 (glioma, adherent, top dose 4 µM) | 0.826 | 3.77 | 0.925 | > 4 | 0.884 | > 4
KLE (endometrium, adherent, top dose 4 µM) | 0.976 | > 4 | 0.949 | > 4 | 0.95 | > 4
KM12 (large intestine, adherent, top dose 4 µM) | 0.732 | 1.22 | 0.873 | > 4 | 0.799 | 2.11
KM-H2 (Hodgkin lymphoma, suspension, top dose 4 µM) | 0.99 | > 4 | 0.99 | > 4 | 0.984 | > 4
KMH-2 (thyroid, adherent, top dose 4 µM) | 0.99 | > 4 | 0.902 | > 4 | 0.45 | 0.185
KMOE-2 (acute myeloid leukaemia, suspension, top dose 4 µM) | 0.912 | > 4 | 0.901 | > 4 | 0.912 | > 4
KMRC-1 (kidney, adherent, top dose 4 µM) | 0.871 | > 4 | 0.939 | > 4 | 0.871 | > 4
KMRC-20 (kidney, adherent, top dose 4 µM) | 0.864 | 3.57 | 0.956 | > 4 | 0.939 | > 4
KMS-11 (myeloma, suspension, top dose 4 µM) | 0.985 | > 4 | 0.988 | > 4 | 0.97 | > 4
KNS-42 (glioma, adherent, top dose 4 µM) | 0.813 | 2.7 | 0.94 | > 4 | 0.971 | > 4
KNS-62 (lung squamous cell carcinoma, adherent, top dose 4 µM) | 0.776 | 2.38 | 0.953 | > 4 | 0.959 | > 4
KNS-81-FD (glioma, adherent, top dose 4 µM) | 0.905 | > 4 | 0.934 | > 4 | 0.9 | > 4
KOPN-8 (B-cell leukaemia, suspension, top dose 4 µM) | 0.667 | 0.676 | 0.787 | 1.48 | 0.976 | > 4
KP-1N (pancreas, adherent, top dose 4 µM) | 0.878 | > 4 | 0.967 | > 4 | 0.955 | > 4
KP-2 (pancreas, adherent, top dose 4 µM) | 0.795 | 2.03 | 0.959 | > 4 | 0.601 | 0.484
KP-3 (pancreas, adherent, top dose 4 µM) | 0.827 | 3.1 | 0.982 | > 4 | 0.871 | > 4
KP-N-YN (neuroblastoma, adherent, top dose 4 µM) | 0.985 | > 4 | 0.907 | > 4 | 0.985 | > 4
KS-1 (glioma, adherent, top dose 4 µM) | 0.795 | 2.39 | 0.883 | > 4 | 0.847 | > 4
KU812 (chronic myeloid leukaemia, suspension, top dose 4 µM) | 0.898 | > 4 | 0.878 | 3.45 | 0.454 | 0.19
